Experimental data published in the supplement of paper PMC11383711.
This is one part of the list. Binding of human antibodies (heavy:light variable regions, tested as scFv in one mRNA-display pool) to influenza hemagglutinin, with or without the stem antibody CR9114 bound first. Score = (mean enrichment − median) / interquartile range of that screen; higher = more enriched, 0 = typical non-binder. Active = above the paper's cut-off per screen: stems 28; unblocked H1 Solomon Islands 5, H1 Michigan 3, H3 5, H5 19, H7 2.85, both B 5; blocked 9, 7, H5 10, H7 10, B Phuket 10, B Lee 11.5. Scores are scaled within each screen and are no affinities; replicates correlate at about 0.6 to 0.9, and antibodies rare in the pool are noisier.

B1: 014-10-3C04 (protein)
chain 1: QVQLVESGGGVVRPGRSQSLSCAASGFTITPYTMFWVRQAPGKGLEWVAMILYDGSSTDYAGPVKGRFTISRDNSKNTLNLQMNSLRAADTAVYYCARGYGSGKSHYYFDYWGQGTLVTVSS
chain 2: EIVLTQSPGTLSLSPGERATLSCRASQSVSSFYLAWYQQKPGQAPRLLLYGTSNRATGIPDRFSGSGSGTDFTLTISRLEPEDFAVYYCQQYDTSLTFGPGTKVDIK
B2: C7-3-A05 (protein)
chain 1: VQLVQSGAEVKKPGPGASVKVSCKASGDSFTNYYMHWVRQAPGQGLEWMGMINPNGGNVTYAQNFQDRVTMTIDTSTSTVYMELSSLRSEDTAVYFCVRVFEEQWLAYWGQGTLVTVSS
chain 2: EIVLTQSPATLSLSPGERATLSCRASQSVRNYLAWYQQKPGQAPRLLIYDASNRATGIPARFSGSGSGTDFTLTISSLEPEDSAVYYCQQRFNGLCSFGQGTKVEIK
B3: R95-2A08 (protein)
chain 1: EVQLVESGGGLVQPGGSLRLSCAASGFIVNKNHMNWVRQAPGKGLEWVSVIYSGGNPYHADSVEGRFTISRDISKNTVHLQMNSLGAEDTAVYYCARDGGGWYVNDAFDIWGQGTTVTVSS
chain 2: QSALTQPASVSGSPGQSITISCTGTSSDIGGYNYVSWYQQHPGKAPKLIIFEVTTRPSGISNRFSGSKSGNTASLTISGLQAEDEADYYCSSYRSTTDVLFGGGTKVTVL
B4: R95-1A03 (protein)
chain 1: EVQLVESGGGLIQPGGSLRLSCAASGFTVSINYMSWVRQAPGKGLEWVSVIYTGGETYYADSVKGRFTISRDNSKNTLYLQMNSLRAEDTAVYYCARDGPPGDGSLDYWGQGTLVTVSS
chain 2: SYELTQPPSVSVAPGQTARITCGGNNIGSKSVHWYQQKPGQAPVLVVYDDSDRPSGIPERFSGSNSGNTATLTISRVEAGDEADYYCQVWDSFSDVVFGGGTKLTVL
B5: AG9-4A02 (protein)
chain 1: VQLVESGGGWVKPGGSLRLSCEASGFKFSDHYMAWIRQAPGKGLEWISYISDNGKTEYYADSVRGRFTVSRDNGQYFLYLEMNNVRVEDTAVYYCAREPGQWLEGWFDPWGQGTLVTVSS
chain 2: DIVMTQSPLSLRVTPGEPASISCKSSQSLLHGNGYNYLDWYLQRPGQSPQLLIYLGSNRASGVPDRFSGSGSGTDFTLKISRVEAEDVGVYYCMQALHTPPWTFGQGTKVEIK
B6: AG10-3A02 (protein)
chain 1: VQLVESGGGLVQPGGSLRLSCLGSGFTFSRYSMNWVRQAPGKGLEWVSYISDSSRTIYYADSVKGRFTIFRDNAKNSLYLQMNSLRDEDTAVYYCARDPDTAHDRYFDSWGQGTLVTVSS
chain 2: DIQLTQSPSFLSASVGDRVTITCRASQVIGSYFAWYQQKPGKAPKLLIYATSTLQSGVPSRFSGSGSGTEFTLTISGLQPEDFATYYCQQLNTYPPITFGPGTKVDIK
B7: R95-1C09 (protein)
chain 1: LVQLQESGPGLVKPSETLSLTCTVSGDSVTDYYWSWIRQPPGKGLEWIGYIYYSGITNYNPSLKSRVTMSVDTSKNQISLKLTSVIAADTAVYYCARDGRLFDIWGQGTMVAVSS
chain 2: EIVLTQSPGTLSLSPGERATLSCRASQHVSSSYLAWYQQKPGQAPRLLIYDASSRATGIPDRFSGSGSGTDFTLTISRLEPEDFAVYYCQQYGSSHGWTFGQGTKVEVK
B8: 01.z.01 (protein)
chain 1: QVQLQESGPGLVKPSQTLSLTCTVSGGSITNDDSYWSWIRQTPGKGLEWIGYIFHSGNTYYNPSLKSRVTISVDTSKNQFSLEVTSVTAADTAVYYCARDTGVIKDEYFYYYGLDVWGQGTTVTVSS
chain 2: EIVMTQSPATLSVSPGERATLSCRAGQSVNTNLAWFQQKPGQAPRLLIYGASTRATGIPARFSGSGSGTEFTLTISSLQSEDCAVYYCQQYNQWPLNTFGQGTKLEIK
B9: K77-1B08 (protein)
chain 1: EVQLVQSGAEVKKPGESLKISCKGFGFSFTNYWIGWVRQMPGKGLDWMGIIYPGDSDPRYSPSFQGQVTISADKSLSTAFLQWNSLKASDTAMYYCASNILNYRKNWYLGGAFDIWGQGTMVTVSS
chain 2: QSALTQPPSASGTPGQGITISCSGRSSNIGSNTVNWYQQLPGTAPKLLIYTNDQRPSGVPDRFSGSRSGTSASLAISGLQSGDESDYYCATWDDSLNAYVFGTGTKVTVL
B10: K77-2G11 (protein)
chain 1: QMHLQESGPGLVKPSQTLSLTCSVSGGSINNGGYYWSWVRQHPGKGLEWVGYVYHSGNTYYNPSLKSRISMSVDTSNNRFSLKLNPVTAADTAVYFCARVGLTHYDVLTAYYSGYSDTWGQGTLVTVSS
chain 2: DIQMTQSPSSVSASVGDRVTITCRASQDIATWLAWYQQKPVGPPKLLIHGASTLGSGVPSRFSGSGSGTDFTLTISGLQPGDFATYFCQQAYSLPITFGQGTRL
B11: C6-G03 (protein)
chain 1: VQLVESGGGLVQPGRSLRLSCAASGFSFDDFAMHWVRQAPGKGLEWVSGVTWNSGSRDYADSVKGRFTISRDNDKNSLSLQMNSLRPEDTAVYYCVKGRGGVYTGYGPRYLDYWGQGTLVTVS
chain 2: DIQMTQSPTSLSASVGDRVSITCRASQSVITYLHWYQQKPGKAPKLLISAASSLQSGVSSRFSGSGSGTDFTLTISSLQPEDYATYYCQQSYSSPRTFGPGTKVDIK
B12: AG11-2C03 (protein)
chain 1: VQLQESGPGLVKPSETLSLTCRVSGGSIDGDTYYWGWVRQPPGKGPEWIGSMSPNGITYYGPSLKSRVTMSVDSSLKSFSLRMTSVTTTDTAVYYCARDRDIVSRGGFDNWGRGTLVTVSS
chain 2: DIQMTQSPSSLSASVGDRVTITCRASQSISHFLNWYQHRPGQAPKLLIYLASTLHSGVPSRFSGSGSGTYFTLTISGLQPEDFATYYCQQSYSNDPYTFGQGTKVEIK
B13: 236-14-IgG-1F03 (protein)
chain 1: QVQLVESGGGVVQPGRSLRLSCAAFGFTFSSFPMHWVRQAPGKGLEWVAVISYDGSNKYYADSVKGRFTISRDNSKNTLYVQMNSLRAEDTAVYYCSRDQGGDYGDYGGGFDYWGQGTLVTVSS
chain 2: QSVLTQPPSASGTPGQRVTISCSGSSSNIASNTVNWYQQVPGTAPKLLIYSNDVRPSGVPDRFSGSKSGTSASLAISGLQSEDEADHYCAVWDDSLNAYVFGTGTKVTVL
B14: C2-3-D06 (protein)
chain 1: VQLQESGPGLVKPSETLSLTCTVSADSISSYFWTWIRQPPGKGLEWIGYIYYSGSTNYNPSLKSRVTISLDTSKRLLSLKLSSVTAADTAVYYCARDSTVFPRIFDSWGQGTLVTVSS
chain 2: IVMTQSPGTLSVSPGERATLSCRASQSVGSSFLAWYQQKLGQAPRLLIYGVSSRATGVPDRFSGSGSGTDFTLTISRLEPEDFAVYYCQQCGSSPWTFGQGTKVEIK
B15: antibody 4F05 (protein)
chain 1: VQLQQWGAGVWRPSETLSLTCGVSGGSFNGNYWTWIRQSPGKGLEWMGEVDDNGRTNYNPSLTGRVSMSVDTTKKQFSLNLTSMTAADTAVYYCARRGSGSRLVRADYYIDVWGQGTTVTVSS
chain 2: EIVLTQSPGILSLSPGERATLSCRASQTVGSSYLAWYQQRPGQPPRLLIFGSSTRATGVPDRFSGSGSGTDFTLTISRLEPEDFAVYYCQRYGPSPRFTFGPGTKVDIK
B16: antibody 1B02 (protein)
chain 1: VQLLESGGGLVPPGGSLRLSCAASGLSFSSYSMSWVRQAPGKGLEWVSAIGGLHGSTYYADFVEGRFTISRDNSRDTVFLQMNYLRAEDTALYYCASDLDGDDGTWFDNWGQGTLVTVSS
chain 2: EIVMTQSPATLSVSPGERATLSCRASQSVSTNLTWYQQKPGQAPRLLIYGASTRASGIPASFSGGGSGTEFTLTISSLQSEDFAVYFCQQYNDWPPTFGQGTKVEIK
B17: K77-1G05 (protein)
chain 1: EVQLVESGGGVVQPGRSLRLSCAASGFTFSSYSLDWVRQAPGKGLEWVAVISYDGSDKYFADSVKGRFTISRDNSKNTLYLQMNSLRAEDTAVYYCARDSTGYYSFDYWGQGTLVTVSS
chain 2: QSALTQPASVSGSPGQSITISCTGTSGDVGNYDLVSWYQHHPGKAPKLMIYEGSERPSGVSNRFSGSKSGNTASLTISGLQAEDEADYYCCSYARGGTGVFGTGTKVTVL
B18: W85-3B09 (protein)
chain 1: EVQLLESGGGLVQPGGSLRLSCAASGFTFSDYAMSWVRQAPGKGLEWVAILSGSSGHTYYPDSVKGRFTISRDNSKNTLYLQLTSLRAEDTAVYYCAKGGGQQPTWDGMDVWGQGTTVTVSS
chain 2: DIQMTQSPSTLSASVGDKVTITCRASQSINRWLAWYQQKPGKAPKLLIYRASSLESGVPSRFSGSGSGTEFTLTISSLQPDDFATYFCQHYEGYSWTFGQGTKVDIK
B19: C3-2-3C01 (protein)
chain 1: VQLLESGGGLVQPGGSLRLSCAASGFTLSSNAMAWVRQVPGKGLQWVSGIGGIGGSTYYADSVKGRFTMSRDNSRNTLYLQMNSLRVEDTAVYYCAKGVGRIFMVRGFYFDYWGQGALVTVSS
chain 2: DIQMTQSPSPLSASVGDRVTITCRASQSITSYLNWYQQRPGKAPKLLIYAASNLQTGVPSRFSGSGSGTDFTLTISSLQPEDFATYYCQQSYSTPHTFGPGTKVDIK

target: H1 HA stem construct (mini-HA #4900); assay: mRNA display binding score; higher = more enriched on the antigen; conditions: antigen blocked with: nothing
Description: (§1)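 A pool of natively paired antibodies, displayed as scFv on mRNA, was selected once on antigen-coated beads and sequenced before and after; two replicates.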

mRNA display binding score, inactive:
B1 -1.07
B2 0.499
B3 -0.277
B4 -0.738
B5 0.169
B6 0.285
B7 0.000898
B8 0.184
B9 0.0538
B10 0.0612
B11 0.572
B12 4.6
B13 -0.519
B14 0.499
B15 0.342
B16 0.301
B17 -1.17
B18 -0.123
B19 -0.243

target: H3 HA stem construct (H3ssF); assay: as above; conditions: antigen blocked with: nothing
Description: as §1

mRNA display binding score, inactive:
B1 -0.459
B2 0.743
B3 0.903
B4 -0.375
B5 -0.185
B6 -0.239
B7 -0.154
B8 0.454
B9 1.14
B10 0.0111
B11 -0.0673
B12 13.7
B13 -0.566
B14 -0.214
B15 -0.213
B16 -0.147
B17 -0.885
B18 -0.293
B19 -0.628
